Test results from patent US9845340B2, “Peptides that specifically bind HGF receptor (cMet) and uses thereof” (Dyax Corp., priority 2003, dated 2017).
At least one compound was matched to its structure with a doubt left.

target: cMet-Fc fusion protein (Homo sapiens, UniProt P08581); assay: Fluorescence anisotropy / polarization direct binding, human cMet; settings: fluorescein-labeled peptide 20 nM
Sequence (P08581 25-307 limits assumed): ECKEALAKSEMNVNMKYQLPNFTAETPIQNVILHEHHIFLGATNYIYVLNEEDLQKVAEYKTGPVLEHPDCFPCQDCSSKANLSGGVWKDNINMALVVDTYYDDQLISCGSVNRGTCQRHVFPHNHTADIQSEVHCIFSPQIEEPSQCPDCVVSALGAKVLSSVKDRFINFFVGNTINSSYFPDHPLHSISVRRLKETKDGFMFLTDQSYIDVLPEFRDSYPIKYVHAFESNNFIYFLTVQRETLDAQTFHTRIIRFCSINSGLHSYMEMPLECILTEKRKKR
Sequence (P08581 with tags, fused parts or gaps limits assumed): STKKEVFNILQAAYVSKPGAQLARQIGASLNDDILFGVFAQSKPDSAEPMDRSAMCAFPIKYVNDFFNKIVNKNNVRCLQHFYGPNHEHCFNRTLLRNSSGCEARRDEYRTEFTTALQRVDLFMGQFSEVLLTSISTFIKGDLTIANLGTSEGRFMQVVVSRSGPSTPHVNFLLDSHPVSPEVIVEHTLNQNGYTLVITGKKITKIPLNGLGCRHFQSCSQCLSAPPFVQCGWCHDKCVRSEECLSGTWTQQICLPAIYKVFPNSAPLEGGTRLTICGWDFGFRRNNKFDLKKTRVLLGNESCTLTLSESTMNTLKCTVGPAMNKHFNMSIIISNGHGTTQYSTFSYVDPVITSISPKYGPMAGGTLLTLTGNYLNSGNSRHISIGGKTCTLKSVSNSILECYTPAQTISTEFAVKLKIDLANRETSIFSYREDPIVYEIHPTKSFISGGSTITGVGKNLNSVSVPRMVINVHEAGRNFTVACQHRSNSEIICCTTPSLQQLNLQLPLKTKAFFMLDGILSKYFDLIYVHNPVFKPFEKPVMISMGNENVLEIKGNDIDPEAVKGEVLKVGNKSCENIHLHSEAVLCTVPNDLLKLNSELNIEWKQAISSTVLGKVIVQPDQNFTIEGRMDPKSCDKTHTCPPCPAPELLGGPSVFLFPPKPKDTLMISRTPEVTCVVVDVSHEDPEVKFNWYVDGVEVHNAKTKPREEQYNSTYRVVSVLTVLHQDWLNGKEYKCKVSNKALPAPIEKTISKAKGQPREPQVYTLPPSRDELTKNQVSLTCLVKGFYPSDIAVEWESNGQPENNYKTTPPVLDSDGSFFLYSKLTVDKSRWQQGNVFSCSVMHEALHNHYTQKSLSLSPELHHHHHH

First: CC[C@H](C)[C@H](NC(=O)[C@H](Cc1c[nH]c2ccccc12)NC(=O)[C@H](Cc1c[nH]cn1)NC(=O)CNC(=O)[C@H](C)NC(C)=O)C(=O)N[C@H]1CSSC[C@@H](C(=O)N[C@@H](CCC(N)=O)C(=O)N[C@@H](Cc2c[nH]c3ccccc23)C(=O)N[C@@H](Cc2c[nH]cn2)C(=O)NCC(=O)N[C@H](C(=O)NCC(=O)NCC(=O)NCC(=O)N[C@@H](CCCCNC(=O)c2ccc3c(c2)C(=O)OC32c3ccc(O)cc3Oc3cc(O)ccc32)C(N)=O)[C@@H](C)O)NC(=O)[C@H](CO)NC(=O)[C@H](Cc2ccccc2)NC(=O)[C@H]([C@@H](C)O)NC(=O)[C@@H]2CCCN2C(=O)[C@@H]2CCCN2C(=O)CNC(=O)[C@H](C(C)C)NC1=O [SEQ ID NO: 071]
Second: CC[C@H](C)[C@H](NC(=O)[C@H](Cc1c[nH]c2ccccc12)NC(=O)[C@H](CC(N)=O)NC(=O)CNC(=O)[C@H](C)NC(C)=O)C(=O)N[C@H]1CSSC[C@@H](C(=O)N[C@@H](Cc2c[nH]c3ccccc23)C(=O)N[C@@H](Cc2ccc(O)cc2)C(=O)N[C@@H](Cc2c[nH]cn2)C(=O)NCC(=O)N[C@H](C(=O)NCC(=O)NCC(=O)NCC(=O)N[C@@H](CCCCNC(=O)c2ccc3c(c2)C(=O)OC32c3ccc(O)cc3Oc3cc(O)ccc32)C(N)=O)[C@@H](C)O)NC(=O)CNC(=O)[C@H](Cc2ccccc2)NC(=O)[C@H](CO)NC(=O)[C@@H]2CCCN2C(=O)[C@@H]2CCCN2C(=O)CNC(=O)[C@H]([C@@H](C)O)NC1=O [SEQ ID NO: 078]
The Kd of the first is 1.6-fold lower: 1850 nM for the first, 2900 nM for the second.

`CSCC[C@H](NC(=O)[C@@H]1CCCN1C(=O)[C@H](CO)NC(=O)CNC(=O)[C@@H](NC(=O)[C@H](CCC(N)=O)NC(=O)[C@H](C)NC(C)=O)C(C)C)C(=O)N[C@@H](CC(C)C)C(=O)N1CCC[C@H]1C(=O)N[C@@H](CO)C(=O)N[C@@H](Cc1c[nH]c2ccccc12)C(=O)N[C@@H](Cc1ccccc1)C(=O)N[C@@H](CO)C(=O)N[C@@H](Cc1ccccc1)C(=O)N[C@@H](CCC(=O)O)C(=O)N[C@@H](C)C(=O)N[C@@H](CC(N)=O)C(=O)N[C@@H](Cc1c[nH]c2ccccc12)C(=O)N[C@@H](CO)C(=O)N[C@@H](CO)C(=O)NCC(=O)NCC(=O)NCC(=O)N[C@@H](CCCCNC(=O)c1ccc2c(c1)C(=O)OC21c2ccc(O)cc2Oc2cc(O)ccc21)C(N)=O` [SEQ ID NO: 456] and `CC[C@H](C)[C@H](NC(=O)[C@H](CC(=O)O)NC(=O)[C@H](Cc1ccccc1)NC(=O)[C@H](Cc1ccccc1)NC(=O)[C@H](CCC(=O)O)NC(=O)[C@H](Cc1c[nH]c2ccccc12)NC(=O)[C@@H](NC(=O)[C@H](CCC(=O)O)NC(=O)[C@H](CCCCN)NC(=O)[C@H](CCC(N)=O)NC(=O)[C@H](C)NC(C)=O)[C@@H](C)O)C(=O)N[C@H](C(=O)N[C@@H](Cc1ccc(O)cc1)C(=O)NCC(=O)N[C@@H](CO)C(=O)NCC(=O)N[C@@H](Cc1c[nH]c2ccccc12)C(=O)N[C@@H](CCCCN)C(=O)N[C@@H](Cc1ccccc1)C(=O)N[C@@H](CC(N)=O)C(=O)N[C@@H](CO)C(=O)N1CCC[C@H]1C(=O)NCC(=O)NCC(=O)NCC(=O)N[C@@H](CCCCNC(=O)c1ccc2c(c1)C(=O)OC21c2ccc(O)cc2Oc2cc(O)ccc21)C(N)=O)C(C)C` [SEQ ID NO: 466] cannot be ordered by Kd: 2300 nM for the first, > 2000 nM for the second.

`CC[C@H](C)[C@@H]1NC(=O)[C@H](Cc2ccc(O)cc2)NC(=O)[C@H]([C@@H](C)O)NC(=O)[C@H](CCC(=O)O)NC(=O)[C@H](CC(C)C)NC(=O)[C@H](CC(=O)O)NC(=O)[C@H](Cc2ccccc2)NC(=O)[C@H](CC(=O)O)NC(=O)[C@@H](NC(=O)[C@H](Cc2ccc(O)cc2)NC(=O)[C@H](CC(=O)O)NC(=O)[C@H](Cc2ccc(O)cc2)NC(=O)[C@H](CC(=O)O)NC(=O)CNC(C)=O)CSSC[C@@H](C(=O)N[C@@H](Cc2c[nH]cn2)C(=O)N[C@@H](CO)C(=O)N[C@@H](Cc2ccc(O)cc2)C(=O)N[C@@H](CC(=O)O)C(=O)N2CCC[C@H]2C(=O)NCC(=O)NCC(=O)NCC(=O)N[C@@H](CCCCNC(=O)c2ccc3c(c2)C(=O)OC32c3ccc(O)cc3Oc3cc(O)ccc32)C(N)=O)NC(=O)[C@H](CCC(=O)O)NC(=O)[C@@H]2CCCN2C1=O` [SEQ ID NO: 390] and `CC(=O)N[C@@H](C)C(=O)NCC(=O)NCC(=O)N[C@@H](Cc1c[nH]c2ccccc12)C(=O)N[C@@H](CCC(=O)O)C(=O)N[C@H]1CSSC[C@@H](C(=O)NCC(=O)N[C@@H](Cc2ccc(O)cc2)C(=O)N[C@@H](Cc2ccc(O)cc2)C(=O)NCC(=O)N[C@H](C(=O)NCC(=O)NCC(=O)NCC(=O)N[C@@H](CCCCNC(=O)c2ccc3c(c2)C(=O)OC32c3ccc(O)cc3Oc3cc(O)ccc32)C(N)=O)[C@@H](C)O)NC(=O)[C@H](CCC(N)=O)NC(=O)[C@H](Cc2ccccc2)NC(=O)[C@H](Cc2c[nH]c3ccccc23)NC(=O)[C@@H]2CCCN2C(=O)[C@@H]2CCCN2C(=O)CNC(=O)[C@H]([C@@H](C)O)NC1=O` [SEQ ID NO: 067] are within 1.5-fold of each other in Kd: 1500 nM for the first, 1650 nM for the second.

Compared with `CC[C@H](C)[C@H](NC(=O)[C@@H](NC(=O)[C@H](CCC(=O)O)NC(=O)[C@H](Cc1c[nH]cn1)NC(=O)[C@@H](NC(=O)[C@H](C)NC(=O)[C@@H]1CCCN1C(=O)[C@H](CC(N)=O)NC(=O)[C@H](Cc1ccccc1)NC(=O)[C@H](CCCCN)NC(=O)[C@H](Cc1ccccc1)NC(=O)[C@H](Cc1c[nH]cn1)NC(=O)[C@@H](NC(=O)[C@@H](NC(=O)[C@H](C)NC(=O)[C@H](CCSC)NC(=O)[C@H](CC(=O)O)NC(=O)[C@H](CCC(=O)O)NC(=O)[C@@H](NC(=O)[C@H](CCC(N)=O)NC(=O)[C@H](C)NC(C)=O)C(C)C)[C@@H](C)O)C(C)C)[C@@H](C)O)C(C)C)C(=O)N[C@@H](Cc1c[nH]c2ccccc12)C(=O)NCC(=O)NCC(=O)NCC(=O)N[C@@H](CCCCNC(=O)c1ccc2c(c1)C(=O)OC21c2ccc(O)cc2Oc2cc(O)ccc21)C(N)=O` [SEQ ID NO: 492], `CC(=O)N[C@@H](C)C(=O)N[C@@H](CCC(N)=O)C(=O)N[C@@H](CCC(N)=O)C(=O)N[C@@H](C)C(=O)N[C@@H](CO)C(=O)N[C@@H](CCCNC(=N)N)C(=O)N[C@@H](Cc1ccccc1)C(=O)N[C@H](C(=O)N[C@@H](Cc1ccccc1)C(=O)N[C@H](C(=O)N[C@@H](CC(=O)O)C(=O)NCC(=O)N[C@@H](CC(=O)O)C(=O)N[C@@H](CO)C(=O)N[C@@H](Cc1ccc(O)cc1)C(=O)N[C@@H](Cc1c[nH]c2ccccc12)C(=O)N[C@@H](Cc1c[nH]c2ccccc12)C(=O)N[C@@H](Cc1ccccc1)C(=O)N[C@@H](CCC(=O)O)C(=O)N[C@@H](CC(=O)O)C(=O)N[C@@H](Cc1ccccc1)C(=O)NCC(=O)NCC(=O)NCC(=O)N[C@@H](CCCCNC(=O)c1ccc2c(c1)C(=O)OC21c2ccc(O)cc2Oc2cc(O)ccc21)C(N)=O)[C@@H](C)O)[C@@H](C)O` [SEQ ID NO: 449] is 8.6-fold higher in Kd: 800 nM for the first, 6900 nM for the second. The first binds more tightly here.

`CC[C@H](C)[C@H](NC(=O)[C@H](CO)NC(=O)CNC(=O)[C@H](C)NC(C)=O)C(=O)N[C@@H](CCC(N)=O)C(=O)N[C@H]1CSSC[C@@H](C(=O)N[C@H](C(=O)N2CCC[C@H]2C(=O)N[C@@H](Cc2ccc(O)cc2)C(=O)NCC(=O)N[C@H](C(=O)NCC(=O)NCC(=O)NCC(=O)N[C@@H](CCCCNC(=O)c2ccc3c(c2)C(=O)OC32c3ccc(O)cc3Oc3cc(O)ccc32)C(N)=O)[C@@H](C)O)[C@@H](C)O)NC(=O)[C@H](CCC(=O)O)NC(=O)[C@H](Cc2ccccc2)NC(=O)[C@H](CO)NC(=O)[C@@H]2CCCN2C(=O)[C@@H]2CCCN2C(=O)CNC(=O)[C@H](C(C)C)NC1=O` [SEQ ID NO: 074] gave a Kd of 3300 nM.
